# Measured values published in PubChem BioAssay AID686978 (National Center for Advancing Translational Sciences (NCATS), 2013).
# The campaign covered roughly 420,000 compounds. About 64,000 (15%) were called active. The inconclusive results got no clear call from the source; some entries with a clear call stand among them for comparison. The call rests on the fitted dose curve; in most records, active means well fitted inhibition curve with a large enough effect; inconclusive means small, poorly fitted or top-dose-only effect; inactive means flat fitted curve, though single readings scatter. No potency is given beside an inconclusive call; the fits are too rough.
# Assay: qHTS for Inhibitors of human tyrosyl-DNA phosphodiesterase 1 (TDP1): qHTS in cells in absence of CPT; further: nearly all actives have a fitted effect of over 55% in size
# Settings: DT40 Tdp1-/- hTDP1 cells, no CPT, ATP luminescence, 48 h; activity change, negative = growth inhibition: at 46.2 µM (top of the series) unless noted
# Procedure, shortened: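 Camptothecin absent (DMSO only). Human TDP1-complemented DT40 knockout cells, 400 cells/well, 37 °C for minimum 48 hr; ATP measured via CellTiter-Glo, 30 min dark incubation, luminescence.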
# On the % scale 0 is the no-effect control and ±100 the full control effect; potency means the concentration at half of the fitted maximal effect; tags describe the fitted curve by direction and shape.
Structure (SMILES),Potency,"activity change, negative = growth inhibition"
N#Cc1nc(-c2ccccc2)cc(-c2ccccc2)n1,"inconclusive [inhibitor, full curve]",
COc1ccccc1NC(=S)Nc1ccccc1F,"inconclusive [inhibitor, single point]",
COCCC1CCCCN1C(=O)c1cc(COc2ccc(-n3cncn3)cc2)on1 (stereo unspecified),active: 2.06 µM,
CCOC(=O)c1[nH]c(C)c(C(=O)N2CCN(c3ccc(F)cc3)CC2)c1C,,inconclusive: -33.7% [inhibitor]
O=C(Nc1nc(-c2nc3ccccc3s2)cs1)C1CC1,"inconclusive [inhibitor, single point]",
Cn1c(=O)c(C(=O)O)nn(-c2ccccc2)c1=O,active: 16.4 µM,
O=[N+]([O-])c1ccc(Cl)cc1CN1CCCCCC1,,inconclusive: -32.4% [inhibitor]
COc1ccccc1N1CCN(Cc2cn[nH]c2-c2ccc(F)cc2)CC1,"inconclusive [inhibitor, partial curve]",
Cc1cc(C(=O)Nc2ccccc2-c2nc(CNC(=O)c3cc4ccccc4cn3)c(C)o2)c(C)o1,,inactive: -1.69%
Cc1nn2c(=O)cc(COC(=O)c3cccc(NC(=O)COc4ccccc4C)c3)nc2s1,active: 20.6 µM,
Cc1ccc(N2C(=O)CCSC23C(=O)N(Cc2ccccc2)c2ccccc23)cc1 (stereo unspecified),active: 16.4 µM,
Cc1ccc(NC(=S)NNC(=O)c2ccccc2OC(F)F)cc1,"inconclusive [inhibitor, single point]",
CCOC(=O)c1[nH]c2cc(OC)c(OC)cc2c1NC(=O)C(C)N1CCN(Cc2ccccc2)CC1 (stereo unspecified),active: 18.4 µM,
COc1ccc(C(=O)Nc2ccccc2C(=O)NCc2cccnc2)cc1,"inconclusive [inhibitor, single point]",
COc1cccc(CNC(=O)CSC2=Nc3ccccc3N=C(c3ccc(F)cc3)C2)c1,"inconclusive [inhibitor, single point]",
O=C(CSc1nnc(COc2ccc(Br)cc2)o1)N1CCOCC1,active: 18.4 µM,
COc1ccc(Cl)cc1C=CC=NNS(=O)(=O)c1ccc(C)cc1,active: 16.4 µM,
COC(=O)C1CCc2c(ccc3c2CCCC3)C1=O (stereo unspecified),,inactive: -11.9%
COCc1ccc(C(=O)N2CCCC(C(=O)c3ccc(SC)cc3)C2)o1 (stereo unspecified),"inconclusive [inhibitor, single point]",
Cc1csc(NC(=O)c2cccn2C)n1,"inconclusive [inhibitor, single point]",
CC(C)(CO)Nc1ccc([N+](=O)[O-])cc1[N+](=O)[O-],,inactive: -19.3%
